Some test systems named below: HCC-1143; HCC-1187; MDA-468; SUM-149.
Common to all, as to experiment: cell viability relative to vehicle (% of vehicle); basal-like triple-negative breast cancer lines; higher = less cytotoxic
Common to all, as to details: 10 µM; 72 h

The values below come from the supplement of paper PMC8512760.

Some of the results follow. Repeats are few or missing, and single values can be far off.
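Note: stably firefly luciferase-GFP labeled cells in 96-well plates, viability read as luciferase photon flux after d-luciferin addition, treated wells normalized to vehicle wells, single-dose high-throughput screen.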

For `CS(=O)(=O)O.Cc1c(O)cccc1C(=O)NC(CSc1ccccc1)C(O)CN1CC2CCCCC2CC1C(=O)NC(C)(C)C` (stereo not given) [Nelfinavir Mesylate], the cell viability in the experiment on HCC-1143 came out at 91.5; in the experiment on HCC-1187, 102; in the experiment on MDA-468, 80.7; with SUM-149, 116.

Consider `CN1C2CCCC1CC(NC(=O)c1nn(C)c3ccccc13)C2` (stereo not given) [Granisetron], for which the cell viability was determined as 92.3 with HCC-1143, 107 in the experiment on HCC-1187, 82.8 in the experiment with MDA-468 and 124 in the experiment with SUM-149.

As for `CCCCCCCCCC(=O)NC(Cc1c[nH]c2ccccc12)C(=O)NC(CC(N)=O)C(=O)NC(CC(=O)O)C(=O)NC1C(=O)NCC(=O)NC(CCCN)C(=O)NC(CC(=O)O)C(=O)NC(C)C(=O)NC(CC(=O)O)C(=O)NCC(=O)NC(CO)C(=O)NC(C(C)CC(=O)O)C(=O)NC(CC(=O)c2ccccc2N)C(=O)OC1C` (stereo not given) [Daptomycin], the cell viability came out at 105 in the experiment with HCC-1143, 106 in the experiment on HCC-1187, 99.7 with MDA-468 and 87.4 with SUM-149.

Take `CCCc1cc(=O)[nH]c(=S)[nH]1` [Propylthiouracil]: the cell viability in the experiment with HCC-1143 was 86.2; in the experiment with HCC-1187 it was 85.4; in the experiment with MDA-468, 102; in the experiment with SUM-149 it was 113.

As for `CC(C)OC(=O)C(C)(C)Oc1ccc(C(=O)c2ccc(Cl)cc2)cc1` [Fenofibrate], the cell viability in the experiment on HCC-1143 came out at 102; in the experiment with HCC-1187, 120; in the experiment on MDA-468 it was 87.9; in the experiment on SUM-149, 108.

For the molecule `CN1CCCC(n2nc(Cc3ccc(Cl)cc3)c3ccccc3c2=O)CC1.Cl` (stereo not given) [Azelastine HCl], the cell viability with HCC-1143 came out at 81.6; in the experiment on HCC-1187, 83.5; with MDA-468 it was 98.7; in the experiment on SUM-149 it was 87.4.

Consider `Oc1ccc(C2CNCCc3c2cc(O)c(O)c3Cl)cc1` (stereo not given) [Fenoldopam], for which the cell viability was determined as 96.1 in the experiment on HCC-1143, 116 in the experiment on HCC-1187, 102 with MDA-468 and 105 in the experiment on SUM-149.

Regarding `CCC(C)C(=O)OC1CC(O)C=C2C=CC(C)C(CCC(O)CC(O)CC(=O)[O-])C21.[Na+]` (stereo not given) [Pravastatin sodium], the cell viability is 98.5 in the experiment on HCC-1143, 87.7 in the experiment with HCC-1187, 106 with MDA-468 and 112 with SUM-149.

As for `CCCNS(=O)(=O)Nc1ncnc(OCCOc2ncc(Br)cn2)c1-c1ccc(Br)cc1` [Macitentan], the cell viability is 85.6 in the experiment on HCC-1143, 91.5 in the experiment on HCC-1187, 69.7 in the experiment with MDA-468 and 101 in the experiment on SUM-149.

For the molecule `CN(C)c1nc(N(C)C)nc(N(C)C)n1` [Altretamine], the cell viability worked out at 78.6 with HCC-1143, 97.4 with HCC-1187, 81.7 in the experiment on MDA-468 and 81 in the experiment on SUM-149.

`CCC1=C(C)CN(C(=O)NCCc2ccc(S(=O)(=O)NC(=O)NC3CCC(C)CC3)cc2)C1=O` (stereo not given) [Glimepiride]: the cell viability in the experiment on HCC-1143 came to 97.7; with HCC-1187 it was 94.4; in the experiment with MDA-468, 95; in the experiment with SUM-149, 114.

Take `O=C(O)Cc1ccccc1Nc1c(Cl)cccc1Cl` [Diclofenac]: the cell viability with HCC-1143 came to 107; with HCC-1187, 100; in the experiment with MDA-468, 109; with SUM-149, 115.

Turning to `CNC(=O)c1cc(Oc2ccc(NC(=O)Nc3ccc(Cl)c(C(F)(F)F)c3)cc2)ccn1` [Sorafenib], the cell viability with HCC-1143 came to 72.5; with HCC-1187 it was 101; in the experiment with MDA-468, 54.5; with SUM-149, 88.5.

For `Cc1cc(=O)n(-c2ccccc2)n1C` [Antipyrine], the cell viability amounted to 70.7 in the experiment on HCC-1143, 88.2 in the experiment on HCC-1187, 112 in the experiment on MDA-468 and 110 with SUM-149.

Turning to `CN1CCC(=C2c3ccccc3CCc3sccc32)CC1.O=C(O)CC(O)C(=O)O` [Pizotifen Malate], the cell viability in the experiment on HCC-1143 was determined as 85.3; with HCC-1187, 113; in the experiment on MDA-468 it was 135; with SUM-149, 93.8.
